Source: the supplement of paper PMC10126150
Sequences with one replicate were seen in a single cluster, so their values are uncertain.

Tested on: ATP
Experiment: switch fluorescence ratio, 500 uM ATP over buffer (Cy3 cluster intensity, sum of 5 cycles each) (fold (ratio)); higher = stronger signal-on switching upon ATP binding; sequences stand for … in TCGTCGGCAGCGTCAGATGTGTATAAGAGACAGTTTTTTTTTTTTTTTTTTTTTTTTT…TC
Conditions: aptamer strand: ATP DNA aptamer (quencher-CACCTGGGGGAGTATTGCGGAGGAAGG + anchor), 100 nM annealed; ATP concentration: 500 uM; one replicate
Summary of the method: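 Imaging in selection buffer was followed by imaging after 15 min with 500 uM ATP at 22 °C, for Cy3-labelled switching-strand clusters annealed to 100 nM quencher-labelled ATP aptamer on a modified Illumina MiSeq flow-cell. Five of these buffer/ATP cycles ran, separated by NaOH stripping and re-annealing. The fluorescence ratio per cluster is summed target-cycle over summed buffer-cycle Cy3 intensity, averaged per switch-domain sequence; clusters outside 100-1000 RFU were removed.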
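Also: ATP exposure 15 min at 22 °C before imaging.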

| Sequence | switch fluorescence ratio |
| --- | --- |
| ATGCACGTCG | 1.08 |
| ATGCACGTTA | 1.15 |
| ATGCATAAGA | 0.993 |
| ATGCATCGGT | 1 |
| ATGCATTCCA | 1.04 |
| ATGCCAAAGT | 1.02 |
| ATGCCACCTC | 1.03 |
| ATGCCACGAC | 1.04 |
| ATGCCTCATG | 0.99 |
| ATGCCTTCGG | 0.983 |
| ATGCGACATG | 0.995 |
| ATGCGACCCT | 1.31 |
| ATGCGAGATT | 1 |
| ATGCGATCGT | 1.05 |
| ATGCGCGTTC | 0.982 |
| ATGCGCGTTG | 0.996 |
| ATGCGCTCTG | 0.988 |
| ATGCGGGAAT | 1 |
| ATGCGGGGTG | 0.995 |
| ATGCGGTCC | 1.02 |
| ATGCGTAGGA | 1 |
| ATGCGTCCCA | 0.985 |
| ATGCGTCGTA | 1.03 |
| ATGCTAGCGA | 1.02 |
| ATGCTAGGTA | 1.02 |
| ATGCTCCATC | 0.981 |

| Sequence | switch fluorescence ratio |
| --- | --- |
| ATGCTGATAG | 0.991 |
| ATGCTTACCG | 0.972 |
| ATGCTTCCGT | 1.17 |
| ATGCTTTAAA | 0.983 |
| ATGGAAAAAC | 1.05 |
| ATGGAAAACC | 1.05 |
| ATGGAACCG | 1.08 |
| ATGGAACGAT | 1.16 |
| ATGGAAGATC | 0.97 |
| ATGGAGATTC | 0.938 |
| ATGGAGGCCT | 0.988 |
| ATGGAGGGTT | 1 |
| ATGGATACAA | 1.01 |
| ATGGCACTCC | 1.05 |
| ATGGCATAGC | 0.989 |
| ATGGCCCCTG | 1.03 |
| ATGGCCTCTG | 0.978 |
| ATGGCTTTGA | 1 |
| ATGGGACCGA | 1.01 |
| ATGGGAGAGG | 1.02 |
| ATGGGATCGT | 0.994 |
| ATGGGGCGGA | 0.981 |
| ATGGGTCTTC | 1.02 |
| ATGGTACGCT | 1.03 |
| ATGGTAGCCC | 0.999 |
| ATGGTCATTT | 1.05 |

| Sequence | switch fluorescence ratio |
| --- | --- |
| ATGGTCGAT | 0.973 |
| ATGGTCGGCG | 1.01 |
| ATGGTGTCA | 1.03 |
| ATGGTGTTGA | 0.987 |
| ATGGTTATGA | 1.01 |
| ATGGTTGTAG | 0.941 |
| ATGTAAAG | 0.965 |
| ATGTAAAGGA | 0.979 |
| ATGTAAGATC | 0.985 |
| ATGTAAGTAA | 1 |
| ATGTAATGCG | 0.994 |
| ATGTAATTA | 0.962 |
| ATGTACAAAA | 1.11 |
| ATGTACCAGT | 1.04 |
| ATGTACGGTG | 1.09 |
| ATGTAGAACC | 1.01 |
| ATGTAGGACA | 1.02 |
| ATGTATAATG | 0.955 |
| ATGTATATAT | 0.994 |
| ATGTATATTA | 1.05 |
| ATGTATGATC | 1.02 |
| ATGTATGTAC | 1.11 |
| ATGTCAGCTA | 1.06 |
| ATGTCCCCAG | 0.977 |
| ATGTCCGGGA | 1.06 |
| ATGTCCGTTT | 0.967 |

| Sequence | switch fluorescence ratio |
| --- | --- |
| ATGTCCTGCA | 1.03 |
| ATGTCTAGGG | 0.951 |
| ATGTGACGTG | 0.994 |
| ATGTGATGGG | 1.02 |
| ATGTGCACCG | 0.982 |
| ATGTGCTCCT | 1.05 |
| ATGTGGAGGA | 1.05 |
| ATGTGTCACC | 1.04 |
| ATGTGTTGTT | 0.979 |
| ATGTTAGTAA | 0.996 |
| ATGTTATGCA | 1.01 |
| ATGTTATT | 0.962 |
| ATGTTCTCTT | 0.98 |
| ATGTTCTTAT | 0.967 |
| ATGTTGAATT | 0.98 |
| ATGTTGAGAT | 0.99 |
| ATGTTGGAGT | 0.986 |
| ATGTTTACG | 1.03 |
| ATGTTTTTTA | 0.951 |
| ATTAAAACTG | 1.09 |
| ATTAAATACA | 1.03 |
| ATTAAATGCA | 0.992 |
| ATTAACCGGC | 1.11 |
| ATTAACGGTA | 1.12 |
| ATTAACTCT | 1.01 |
| ATTAACTGGT | 1.05 |

| Sequence | switch fluorescence ratio |
| --- | --- |
| ATTAAGATAG | 0.995 |
| ATTAAGCGTC | 0.938 |
| ATTAATGCC | 1.01 |
| ATTACAGGAG | 1.06 |
| ATTACAGGGA | 1 |
| ATTACAGGGG | 1.22 |
| ATTACAGTG | 1 |
| ATTACCGTC | 1.05 |
| ATTACCTGCA | 1.16 |
| ATTACGTTGT | 0.998 |
| ATTAGAGGGC | 0.962 |
| ATTAGCGCG | 0.983 |
| ATTAGCTTCT | 1.02 |
| ATTAGGACCA | 1.05 |
| ATTAGGCCCC | 1.04 |
| ATTAGGGCTA | 0.997 |
| ATTAGTAAAT | 0.999 |
| ATTAGTGACT | 1.08 |
| ATTAGTTTCG | 1.02 |
| ATTAGTTTTA | 0.946 |
| ATTATACATG | 0.972 |
| ATTATACCAA | 1 |
| ATTATATACA | 1.05 |
| ATTATCGGG | 0.994 |
| ATTATGAG | 0.983 |
| ATTATGCGTC | 0.997 |

| Sequence | switch fluorescence ratio |
| --- | --- |
| ATTATGTGCG | 0.982 |
| ATTATTAAAC | 1.02 |
| ATTATTTGTT | 1 |
| ATTCAACCAA | 0.976 |
| ATTCACTAAC | 1.15 |
| ATTCAGATTC | 1.02 |
| ATTCAGTGGA | 0.958 |
| ATTCATGGTC | 1.04 |
| ATTCATGTG | 1.01 |
| ATTCCACAGC | 1.86 |
| ATTCCATTA | 1.03 |
| ATTCCCAGTT | 0.991 |
| ATTCCCTAAA | 1.01 |
| ATTCCCTTAT | 0.97 |
| ATTCCGATTC | 1.1 |
| ATTCCGGGAT | 1 |
| ATTCCGGTGT | 1.02 |
| ATTCCGTCTG | 1.02 |
| ATTCCTCGA | 1.03 |
| ATTCCTTATG | 1.01 |
| ATTCGACAGC | 1.03 |
| ATTCGACTAA | 1.03 |
| ATTCGCAGGC | 2.37 |
| ATTCGCGAG | 1.01 |
| ATTCGGATCA | 0.979 |
| ATTCGGTACT | 1.02 |

| Sequence | switch fluorescence ratio |
| --- | --- |
| ATTCGGTCAG | 0.964 |
| ATTCGTCACG | 1.02 |
| ATTCGTCTGG | 0.942 |
| ATTCGTGGCA | 1.01 |
| ATTCTCAGG | 1.03 |
| ATTCTCAGGG | 1.05 |
| ATTCTCTGAG | 0.991 |
| ATTCTGGAGG | 1.01 |
| ATTCTGTCGA | 1.05 |
| ATTCTGTGAA | 1.02 |
| ATTCTTAAA | 1.04 |
| ATTGAACGCC | 1.06 |
| ATTGACGAAA | 1.07 |
| ATTGAGATAA | 1.01 |
| ATTGAGCCCT | 1.01 |
| ATTGAGGCCG | 1.15 |
| ATTGAGGGAA | 0.999 |
| ATTGAGTGT | 0.975 |
| ATTGATAGTG | 0.96 |
| ATTGATCGCA | 1.01 |
| ATTGATCGGA | 0.979 |
| ATTGATGGTG | 0.952 |
| ATTGCAATAG | 2.27 |
| ATTGCACGG | 1.04 |
| ATTGCACTTA | 1.03 |
| ATTGCAGCGT | 1.04 |

| Sequence | switch fluorescence ratio |
| --- | --- |
| ATTGCATTAG | 1.05 |
| ATTGCCTCT | 1.04 |
| ATTGCGACTA | 0.979 |
| ATTGCGATAT | 1.09 |
| ATTGCGATGG | 1.06 |
| ATTGCGGAAA | 1 |
| ATTGCGGAGC | 1.02 |
| ATTGCGTGCT | 1.04 |
| ATTGCTAATG | 0.981 |
| ATTGCTACTC | 1.18 |
| ATTGCTTACT | 1.01 |
| ATTGCTTCCG | 1.07 |
| ATTGCTTTCG | 1.01 |
| ATTGGGTC | 0.982 |
| ATTGGTCATG | 0.972 |
| ATTGGTCTGT | 0.952 |
| ATTGGTTGAG | 0.989 |
| ATTGTAACGC | 1 |
| ATTGTCAGGC | 1.01 |
